Assay results: PubChem BioAssay AID624296 (National Center for Advancing Translational Sciences (NCATS), 2012)
The whole screen tested about 350,000 compounds, of which about 9,900 (2.8%) were called active. This list was built around the results that the source calls inconclusive (neither active nor inactive); the mix of calls is not that of the screen. Calls follow the shape of the dose curve; as a rule, active = well fitted activation curve with a large enough effect; inconclusive = small, poorly fitted or top-dose-only effect; inactive = no such curve, though single readings can be large or run the other way. Potencies of inconclusive entries are left out as doubtful fits.
Potency is read from the fitted curve at half-maximal effect; tags tell the direction and shape of the fitted curve.

Test: A quantitative high throughput screen for small molecules that induce DNA re-replication in MCF 10a normal breast cells. Also: nearly all actives have a fitted effect of over 50% in size. As to activity, positive = re-replication: % of control where 0% means no effect.
Conditions: MCF 10A DNA re-replication, Hoechst nuclear intensity, 48 h; activity, positive = re-replication: at 46.1 µM (top of the series)
In the case of CCn1c2ccccc2c2cc(/C=N/NC(=O)c3ccc(O)cc3)ccc21, the Potency is reported as inconclusive [activator, single point].
For Cc1nnc(NC(=O)CSc2nnc(CC(=O)Nc3ccccc3F)n2C)s1, the “activity, positive = re-replication” value was inactive: -15.8%.
In the case of N=c1n(CCO)c2ccccc2n1CCOc1ccc(Cl)cc1Cl, the Potency is reported as inconclusive [activator, partial curve, poor fit].
For COc1ccc(-c2c3c(nc4sc(C(=O)Nc5cc(C)on5)c(N)c24)CCC3)cc1, the Potency was active: 1.46 µM.
For O=S1(=O)c2ccccc2OC(COCc2ccccc2)CN1C1CC1 (centres undefined), the Potency was inconclusive [activator, single point].
In the case of CCCCNc1c(-c2ccc(SC(C)CC)cc2)nc2ccccn12 (centres undefined), the Potency is reported as inconclusive [activator, single point].
In the case of COC(=O)c1ccc(CSc2nc3c(c(=O)n2-c2ccc(F)cc2)SCC3)o1, the Potency is reported as inconclusive [activator, full curve, poor fit].
With COc1ccccc1-c1c(C(F)(F)F)oc2cc(OC(=O)c3ccccc3[N+](=O)[O-])ccc2c1=O the Potency was inconclusive [activator, single point].
With Cc1ccccc1Cn1cc(NC(=O)c2cc(C3CC3)on2)cn1 the Potency was inconclusive [activator, partial curve, poor fit].
In the case of Cc1ccc(/C=N/NC(=O)c2ccc(C(=O)N/N=C/c3ccc(C)s3)o2)s1, the Potency is reported as inconclusive [activator, single point].
In the case of CS(=O)(=O)N(CC(=O)N/N=C/c1cc2c(cc1Br)OCO2)c1ccccc1Br, the “activity, positive = re-replication” value is reported as inactive: 1.17%.
With O=C(Nc1ccn(Cc2ccccc2F)n1)c1ccc(COc2ccc(Br)cc2)cc1 the Potency was inconclusive [activator, partial curve, poor fit].
In the case of COc1ccccc1CN1C[C@@H]2C[C@@H](c3[nH]c4ccc(C)cc4c3C)N3CCC[C@@]23C1=O, the Potency is reported as inconclusive [activator, partial curve, poor fit].
In the case of CCc1nc(Nc2ccc(N3CCN(C(C)=O)CC3)cc2)c2oc3ccccc3c2n1, the Potency is reported as inconclusive [activator, partial curve].
In the case of COc1cc(/C=N\NC(=O)CN2CCOCC2)ccc1OCC(=O)Nc1ccc(C)c(C)c1, the “activity, positive = re-replication” value is reported as inactive: 2.38%.
In the case of COc1ccc(C2=CC(=O)C[C@H](c3ccc(F)cc3)C2)c(OC)c1, the Potency is reported as inconclusive [activator, partial curve, poor fit].
In the case of Cn1cc(C(=O)c2cccc(Cl)c2)cc1C#N, the “activity, positive = re-replication” value is reported as inactive: 22.3%.
In the case of COc1cc(OC)cc(-c2c(C#Cc3ccsc3)c3cc(-c4ccc(OC)cc4F)ccc3n2C)c1, the Potency is reported as active: 0.326 µM.
For O=C(Cc1ccccc1)c1ccc(N2CCOCC2)cc1, the “activity, positive = re-replication” value was inactive: 7.5%.
In the case of CCOc1ccc2nc(NC(=O)COC)sc2c1, the “activity, positive = re-replication” value is reported as inactive: -7.42%.
With COc1ccc2c(c1)CCC/C2=N\NC(=O)c1ccoc1C the “activity, positive = re-replication” value was inactive: -0.958%.
With CCCc1n(CC(O)COC2CCCCC2)c2ccccc2[n+]1C (centres undefined) the Potency was inconclusive [activator, partial curve, poor fit].
With O=C(O)C1C2C=CC(C2)C1C(=O)NCCc1ccccc1 (centres undefined) the Potency was inconclusive [activator, partial curve, poor fit].
With O=C1/C(=C/c2ccc(O)cc2)CCc2ccc([N+](=O)[O-])cc21 the “activity, positive = re-replication” value was inactive: -1.18%.
For O=C(COC(=O)c1cc([N+](=O)[O-])ccc1NCCO)NCc1cccs1, the Potency was active: 0.651 µM.
With COc1ccc(SC[C@H](C)CN2CC[C@H](NC(=O)OCc3ccccc3)CCC2=O)cc1 the Potency was inconclusive [activator, partial curve, poor fit].
In the case of CCn1c(C)nc2cc(NC(=O)Nc3cccc(C(C)=O)c3)ccc21, the “activity, positive = re-replication” value is reported as inactive: 0.0327%.
For CC1CN(C(=O)Cn2cc(S(=O)(=O)CC(=O)N3CCOCC3)c3ccccc32)CC(C)O1 (centres undefined), the “activity, positive = re-replication” value was inactive: 0.632%.
In the case of Cc1ccc(CN2CC(=O)N3[C@H]4c5ccccc5OC[C@@H]4[C@H](c4ccccc4)[C@]3(C)C2=O)cc1, the Potency is reported as inconclusive [activator, single point].
For Cc1ccc(-c2c[n+](CC(=O)OCc3ccccc3)c3n2CCC3)cc1, the Potency was inconclusive [activator, full curve, poor fit].
In the case of COc1cccc(/C=N/N=C(\N)c2nonc2N)c1O, the Potency is reported as inconclusive [activator, partial curve, poor fit].
For CC(C)NS(=O)(=O)c1ccc(OCC(=O)Nc2ccc(F)cc2F)cc1, the “activity, positive = re-replication” value was inactive: -0.259%.
In the case of Cc1nnc(SCC(=O)N2CCc3ccccc32)s1, the Potency is reported as inconclusive [activator, single point].
With O=C(c1cc2nc(-c3cccs3)cc(C(F)(F)Cl)n2n1)N1CCCc2ccccc21 the Potency was inconclusive [activator, partial curve, poor fit].
In the case of CCCn1c2c(c(O)c(C(=O)NCCCN(CC)CC)c1=O)CCCC2, the Potency is reported as inconclusive [activator, partial curve, poor fit].
In the case of Cc1[nH]n(C(N)=S)c(=O)c1N=Nc1cc(-c2ccc(Br)cc2)[nH]n1, the Potency is reported as inconclusive [activator, single point].
For O=C(COc1ccccc1)Nc1ccc(Cl)cn1, the Potency was inconclusive [activator, partial curve, poor fit].
With O=C(NCC(c1ccco1)N1CCc2ccccc21)c1ccccc1F (centres undefined) the “activity, positive = re-replication” value was inactive: 9.19%.
For COc1ccccc1NC(=O)C1=C(C)Nc2nc(-c3ccccc3)nn2C1c1ccccn1 (centres undefined), the Potency was inconclusive [activator, partial curve, poor fit].
With CCOC(=O)Cc1c(C)nc2c(-c3ccc(Cl)cc3)c(C)nn2c1C the Potency was active: 23.1 µM.
With CCCCn1nc(NC(=O)COC)c2cc3cc(OC)ccc3nc21 the “activity, positive = re-replication” value was inactive: 8.56%.
With COc1ccc(-n2c(-c3ccccc3)cc3c2CCCC3=O)cc1 the Potency was inconclusive [activator, single point].
With COc1ccc2nc(SCC(=O)N3CC(=O)Nc4ccccc43)c(C#N)cc2c1 the Potency was active: 2.82 µM.
In the case of CC(=O)c1cccc(NC(=O)c2ccc(CN3CCc4ccccc4C3)cc2)c1, the Potency is reported as inconclusive [activator, partial curve, poor fit].
With COc1ccc2cc3cc(C(=O)Nc4cc(OC)c(OC)c(OC)c4)oc3nc2c1 the “activity, positive = re-replication” value was inactive: 20.4%.
With O=C(O)C1CCCN1c1nc(C(F)(F)F)nc2ccccc12 (centres undefined) the Potency was inconclusive [activator, single point].
In the case of CC(C)NC(=O)NC(=O)COC(=O)c1c2c(nc3ccccc13)CCC2, the Potency is reported as active: 23.1 µM.
With CC(=O)Nc1ccc(NC(=O)CSc2nc3[nH]ncc3c(=O)n2-c2ccccc2)cc1 the “activity, positive = re-replication” value was inactive: 8.79%.
For CC(C)c1ccc(/C=C/C(=O)N2CCOCC2)cc1, the Potency was inconclusive [activator, single point].
With COC(=O)c1cccc(C23CC4(C2)[C@H](CN(Cc2ccc(C(F)(F)F)cc2)[C@@H]4c2ccccc2)C3c2ccc(Cl)nc2)c1 (some centres undefined) the Potency was inconclusive [activator, full curve, poor fit].
With COc1ccc(-c2noc(C3CCCN(S(=O)(=O)c4ccc(C)c(Cl)c4)C3)n2)cc1OC (centres undefined) the Potency was inconclusive [activator, partial curve, poor fit].
For Cc1ccc(C(=O)N/N=C/c2ccc(-c3cccc(C(F)(F)F)c3)o2)cn1, the Potency was active: 9.2 µM.
For O=C(Nc1nnc(-c2ccc3c(c2)CCCC3)o1)C1CCCCC1, the “activity, positive = re-replication” value was inactive: 0.518%.
In the case of CCOC(=O)C1=C(N)Oc2c(c(=O)[nH]c3ccccc23)C1c1ccccc1 (centres undefined), the Potency is reported as inconclusive [activator, single point].
With Cc1ccc(NC(=O)CN(C)C(=O)CSc2nnc(N)s2)cc1 the “activity, positive = re-replication” value was inactive: 4.2%.
With COc1ccccc1CNC(=O)COc1ccccc1C(=O)c1cnn(-c2ccccc2)c1 the Potency was inconclusive [activator, partial curve].
With COc1cc(CNc2ccc3[nH]c(=O)[nH]c3c2)cc(Br)c1OCc1ccc(F)cc1 the Potency was inconclusive [activator, partial curve].
In the case of CCOC(=O)C1(Cc2ccccc2)CCN(Cc2cnn(C(C)C)c2)CC1, the Potency is reported as inconclusive [activator, single point].
With CN1CCN2c3ncccc3Cc3ccccc3C2C1 (centres undefined) the Potency was inconclusive [activator, single point].
With CCN(C(=O)CSc1nc(-c2cccs2)nc2ccccc12)C1CCS(=O)(=O)C1 (centres undefined) the Potency was inconclusive [activator, single point].
For CCOC(=O)CC1C(=O)NCCN1S(=O)(=O)c1ccc(Br)cc1 (centres undefined), the “activity, positive = re-replication” value was inactive: -3.81%.
For CCc1nnc(N/N=C/c2ccccc2F)n1N, the Potency was active: 25.9 µM.
With O=S(=O)(c1ccc(-c2ccccn2)s1)N1CCC2(CC1)OCCO2 the Potency was inconclusive [activator, partial curve, poor fit].
For CCc1ccc(NC(=O)NCCN2CCCCC2)cc1, the Potency was inconclusive [activator, single point].
In the case of COc1ccc(-c2ccc([C@H]3[C@H]4C=CC[C@@H](C)[C@@H]4C(=O)N3Cc3ccccc3)c(F)c2)cc1, the Potency is reported as active: 13 µM.
In the case of O=C(CCOc1ccccc1)Nc1ccnn1C1CCN(Cc2ccc(CO)o2)CC1, the “activity, positive = re-replication” value is reported as inactive: 4.83%.
With COc1ccc(CNC(=O)N2CCN(c3ccccc3OC)CC2)cc1 the “activity, positive = re-replication” value was inactive: 5.26%.
For Cn1cc(C(F)(F)F)nc1-c1ccc(OCC(O)CNCCOc2ccc(O)c(C(N)=O)c2)cc1 (centres undefined), the Potency was inconclusive [activator, full curve, poor fit].
For CC12CCC(C(=O)Nc3cc(Cl)ccc3Cl)(C(Br)C1=O)C2(C)C (centres undefined), the Potency was inconclusive [activator, partial curve].
